# The source gives no read counts; variants with many changes may rest on few reads.
# B1: OR4K15 (parent)
# chain: GUUAACGGUCAUAGGCCAUGGAAACUAGGAGCACCAUUUCGCUGCCAGUGAAGAAAUGAACAAAGAAAAUCUGGGCCAGGCAGGCAUCAAAAGAAAUAGUCUUGCGCUCAACCAGAAAGUCUGUAAUCAUUUUAAGGGUA
# Variants of: B1
# Assay: self-cleavage, relative activity (ratio to wild type); higher = more cleavage; in vitro, sequencing; the parent is a self-cleaving ribozyme
row,Variant,self-cleavage
1,A5G C10U A22G A60G A68G,0.42
2,A5U A55C U57A A60C A78U,0.39
3,A5U U130C A135U,1.69
4,A5G U43A A55C C81U U103A U108C A126G A135U,0
5,C6U U12A U131C,0.86
6,G7A A13U A33U A68G A95G,1.78
7,A5G A33G U57C A117C A129G,0.43
8,A5G G7A G137U,0.53
9,A5U U12A A24G A56G A64U A69G A90G,1.7
10,A5G U9C U12C A22G U57C A116U A125U U132C,0.22
11,A5G C112U U139A,0.05
12,A5G A47U A116U,0.24
13,A5G A51G U100C A111G A117G,0.19
14,A5G U49C A63G U97C U108A A110G,0.1
15,A5G U19C U57C C61U,0.79
16,C6U A96U A129G,1
17,A5G A54U A64G U70C U120A,1.22
18,A5G C77U A116G,0.9
19,A5U A60G A92G A111G,0.1
20,A5U C88U A117G,0.91
21,A5G U38A A60G A78G A82U,0.2
22,G7A A56G A60G U131C,0.78
23,C6U A47G A52G A67G C113A A118G,0.02
24,G7A A30U U38C,1.43

row,Variant,self-cleavage
1,A5G G75C A114G,0.15
2,A5G A55G U70C,0.92
3,A5G U57A A92G A111U,0.07
4,C6U A23G U38C A66G,0.93
5,A5G U39C U103C,1.36
6,A5G U38C A52G A59G A129G,0.84
7,A5G A89G U97C,0.73
8,A5U A23C A59U,1.23
9,A5G A66U U102C A125G A126U,0.44
10,A5G U19A U39G A59G,1.1
11,A5G A52U A86G,1.28
12,A5G A91G U122C U127C,0.43
13,A5U U19C A24G U38C C61A A126U,0.92
14,A5G A54U A62U U139A,0.98
15,A5G A18G U122C,0.97
16,G7A A22G A23G A59G G74C A95C,0.15
17,A5G A91G U102C,1.31
18,A5G A118G U127C,0.15
19,A5G A51G A59U A111U A118C U122C U127C,0.01
20,A5G A52G A78G A118G,0.31
21,A5G C85U A92G A129G,0.9
22,A5G A60U A86U,1.66
23,A5G U37C G50A A94G A111G,0.08
24,G7A A22G U26A G41U,0.61

row,Variant,self-cleavage
1,A5G A30G A54G U87C A114U,0.2
2,A5G A18U U124A G137U,0.48
3,A5G A24G A60G A92G,1.09
4,A5G U70C A92G U133C,0.55
5,A5U A11G A18G U49C U102C,1.36
6,A5G U72C C105U A135G,0.07
7,A5U A24G U102C,1.8
8,A5U A56G A111G U130C,0.04
9,A5G C10U A60G A90G A118U,0.06
10,A5G A63G A90G A135G,1.02
11,A5G A86G A116G,0.41
12,A5G U9C A22G A47G A94C U130C,0.74
13,A5G G20A G48A A60G A91G U108A,0.01
14,A5G A66G U97A A111U A117G,0.11
15,A5U A82G U102C,1.03
16,A5G A54C A64G,0.99
17,A5U A22C A30G A116U C128U,0.16
18,A5U U19A U70C U130C,0.62
19,A5U A51G A62G,2.37
20,C6U A18G A56G U132C,0.94
21,A5G U19A U38C U43A U102A,0.98
22,A5G U39C U127A,1.02
23,A5U A68G A118G,0.76
24,A5G U26C A66G G136A,2.25

row,Variant,self-cleavage
1,A5G U9A A13C,0.76
2,A5G U37C A63G U87A,0.68
3,A5G U49C A82G U120C A126G,0.18
4,A5G A18G A111G A114G U131C,0.01
5,A5G C6U A82G A116G,0.11
6,A5G C40A A125U,1.36
7,C6U A94G U127C,0.66
8,A5G A62C A91G U100A A111G,0.02
9,A5U U70A A111G,0.05
10,A5G A95G U108C U131C,0.01
11,A5U A36C A52G U87C,0.61
12,C6U A67G A91G U108A,0.03
13,G7A A22G A52G A89G U131C,0.69
14,A5G C6U U49C A60G,1.31
15,A5G A52G A117G,1.09
16,A5G A23G A60G,1.34
17,A5U A13U A27C U43C A59G,1.06
18,C6U G48A U100C U132G,1.95
19,C6G U49C A51G G74U U87C A117G,0.12
20,A5G U38C A95G U132C,1.16
21,A5G A67U U122C A129U,1.13
22,A5G U57G U103C G104A U108C A126G A134G,0
23,A5G A51G G106U,0
24,A5G G7A A95G,1.42

row,Variant,self-cleavage
1,A5G U26C A52U A56G A111G U124C U130C,0
2,A5G A95U U103C A125G,0.13
3,A5U A23U U49C A56G A62U,0.9
4,A5U U37C U39C A54G U87C,1.52
5,A5G U122G U130C U132C,0.54
6,A5G A59G G74U U120C,0.19
7,A5U G7A U39A,1.1
8,C6U C16A A63U A95G,1.33
9,A5G G83A U131C,0.85
10,A5G C6U A54U A55G A60G A96G U131C,0.8
11,A5G U43A G75A A118G U130A,0.13
12,C6U A56G A63G A69G,1.27
13,C6G A86G U108C,0.14
14,A5G A60U A64G A126G,1.51
15,C6U U12A A59G A67G A82G A90G A98G A117G,0.19
16,C6U A22G U57A A129G,0.53
17,G7A A86G A135U,1.59
18,C6A U19C A24G A59G A64G A82G,0.37
19,A5G A60G A82U A86G U122C U127C,0.09
20,A5G U37C A62G A86G U103C,0.32
21,A5G A36U C77A A78G U87C,0.17
22,G7A A22G A64G A110G U127G U132C,0.08
23,A5G U103C U124A,0.47
24,C6A A64G A92G U122A,0.57

row,Variant,self-cleavage
1,A5G A47U A110G U122C G123A,0.06
2,A5G A22U A24C A33G A92U,1.15
3,A5G A23G A62C A66U U102C,1.02
4,A5G A69G A126G,0.85
5,A5G A27U A90G,1.03
6,A5G A36G C61A U131C,0.86
7,A5G A56G A126G,0.74
8,A5G U49C A55U A60G,1.09
9,A5G U9C U100C A117G,1
10,A5G A67G U108A A111U,0.01
11,A5G C107U U127A,0.15
12,A5G A60G A114G,0.69
13,A5G A63U A96G G99A,1.59
14,G7A A52G A60G,1.73
15,A5G U9C A30G A67G U72C A91U,0.38
16,A5G A33U A59G,0.59
17,A5U A24C A118U,0.82
18,A5G A30U U108C A116G U122A,0.02
19,A5U A33G A63G,1.09
20,A5G A33U U127A,2.12
21,A5G C17U A78G A91G U127A,0.14
22,A5G A60G A117G,1.23
23,A5G A56G U122C U124C,0.49
24,A5G U39C A55G A62U G104A,0.13

row,Variant,self-cleavage
1,A5G U49C A95G,0.99
2,G7A A67G A92G A94G A98G U120C,0.17
3,A5G A51G A56G G80U A129U,0.12
4,A5G U9C A22U U100C,1.6
5,A5U U39C A98G U100C,1.27
6,A5U A24G A62U U103C A110G,0.38
7,A5G A33G U97A A116G A118G,0.11
8,A5U A64U A135U,1.36
9,A5G U37C A55G,0.6
10,C6A A13U A126G U131C,0.52
11,A5G U9C A55G A86U,1.05
12,G7A A91G A94G U102A,0.57
13,A5G A23G A47U A96G A114U,0.05
14,C6U A63G U70A,1.73
15,A5G U49C U133C,1.24
16,A5G U38C U49C,0.98
17,A5G A59G A125G,0.86
18,A5G A64G A78U,0.2
19,C6A A22G A94G A118G,0.45
20,G7A A24C A78U A125G A129G,0.04
21,A5G A30U U102C,1.41
22,A5G U130C U131C,0.58
23,A5G G44A A92G A126G,0.51

# Source: the RNAGym collection of RNA variant scans (doi:10.7554/elife.90254)
